# The list shows a part of the results.
# B1: PX14379A-bvu-539-28-539 (Bacteroides vulgatus) (protein)
# chain: EPYSEIIEEDYVPTEADEIALLATTYSQLRFVMDWYGLFDLQEESGDVIVTPTRPNGWDDGGTYKQMHKHTWDNQQGQPQSIWDYCYKGIANANKILKRADEGFFTEESKPKVVAEVKGVRALWYSILCDTHGNIPIQTSFSEEVPVQSTRKQVFDFIINELKEVMPNLPTEVNKSTYGRLTQWGAKCLMARMYLNAGVYTGTPMWNECLEQCNDIINSGLFSLETNYTDIFKTENSGCVETIFAIPYDEVYNEGDNNGPVFGAHMKFLSSNSRKVFNMQTTPWGGSAANPQFINSYDPDDMRLKYTWLQGDQYSPDGVLITTFPNKLPSIYKTDTDDGYRVGKYEIKVGAKSLLSNDFPYFRYTEVLLMKAECLLRLGQNETEAAHIVSQIRERAFRESAHPEKATVDAAWLKGDTHINYGTLDEKGQIDDAGNTEVVELGGLYDEWGWEFAAEARRRTDMIRFGTYQKKSWFNHTPTANDLNGNSILFPIHLDHLNTNPNLQQNPGYAGK
# Legend:
# Assay in all cases: glycan array binding signal (z-score within array); higher = stronger binding
# Settings in all cases: glycan notation: IUPAC condensed, linker removed
# [1] = target: Gal(b1-4)GlcNAc(b1-3)[Fuc(a1-3)GlcNAc(b1-6)]Gal(b1-4)Glc
# Summary of the method: (§1)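 Columns mapping to the same glycan were averaged after glycan names were converted to IUPAC-condensed notation. The data come from 3228 arrays in the Consortium for Functional Glycomics database, limited to those with an available protein sequence. Binding is reported as a within-array Z-score averaged across arrays of one protein sequence and across linkers.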
# [2] = target: Gal(b1-4)GlcNAc(b1-3)[Gal(b1-4)GlcNAc(b1-6)]Gal(b1-4)GlcNAc
# Summary of the method: as §1
# [3] = target: Gal(b1-4)GlcNAc(b1-3)[GlcNAc(b1-6)]Gal(b1-4)GlcNAc
# Summary of the method: as §1
# [4] = target: Gal(b1-4)GlcNAc(b1-6)Gal(b1-4)GlcNAc
# Summary of the method: as §1
# [5] = target: Gal(b1-4)GlcNAc(b1-6)GalNAc
# Summary of the method: as §1
# [6] = target: Gal(b1-4)GlcNAc(b1-6)[Gal(b1-3)]GalNAc
# Summary of the method: as §1
# [7] = target: Gal(b1-4)GlcNAc(b1-6)[Gal(b1-4)GlcNAc(b1-3)]GalNAc
# Summary of the method: as §1
# Gal(b1-4)GlcNAc6P = target: Gal(b1-4)GlcNAc6P
# Summary of the method: as §1
# Gal(b1-6)Gal = target: Gal(b1-6)Gal
# Summary of the method: as §1
# Gal3S(b1-3)GalNAc = target: Gal3S(b1-3)GalNAc
# Summary of the method: as §1
# Gal3S(b1-3)GlcNAc = target: Gal3S(b1-3)GlcNAc
# Summary of the method: as §1
# [8] = target: Gal3S(b1-3)[Fuc(a1-4)]GlcNAc
# Summary of the method: as §1
# Gal3S(b1-4)Glc = target: Gal3S(b1-4)Glc
# Summary of the method: as §1
# Gal3S(b1-4)Glc6S = target: Gal3S(b1-4)Glc6S
# Summary of the method: as §1
# Gal3S(b1-4)GlcNAc = target: Gal3S(b1-4)GlcNAc
# Summary of the method: as §1
# [9] = target: Gal3S(b1-4)[Fuc(a1-3)]Glc6S
# Summary of the method: as §1
# [10] = target: Gal3S(b1-4)[Fuc(a1-3)]GlcNAc
# Summary of the method: as §1
# [11] = target: Gal3S(b1-4)[Fuc(a1-3)]GlcNAc6S
# Summary of the method: as §1
# Gal3S4S(b1-4)GlcNAc = target: Gal3S4S(b1-4)GlcNAc
# Summary of the method: as §1
binder,measurement,setting,value
B1,glycan array binding signal (z-score),[1],-0.262
same,glycan array binding signal (z-score),[2],0.405
same,glycan array binding signal (z-score),[3],-0.435
same,glycan array binding signal (z-score),[4],-0.415
same,glycan array binding signal (z-score),[5],0.024
same,glycan array binding signal (z-score),[6],-0.324
same,glycan array binding signal (z-score),[7],-0.059
same,glycan array binding signal (z-score),Gal(b1-4)GlcNAc6P,0.214
same,glycan array binding signal (z-score),Gal(b1-6)Gal,-0.177
same,glycan array binding signal (z-score),Gal3S(b1-3)GalNAc,-0.302
same,glycan array binding signal (z-score),Gal3S(b1-3)GlcNAc,-0.072
same,glycan array binding signal (z-score),[8],-0.301
same,glycan array binding signal (z-score),Gal3S(b1-4)Glc,-0.201
same,glycan array binding signal (z-score),Gal3S(b1-4)Glc6S,-0.224
same,glycan array binding signal (z-score),Gal3S(b1-4)GlcNAc,-0.224
same,glycan array binding signal (z-score),[9],0.048
same,glycan array binding signal (z-score),[10],-0.454
same,glycan array binding signal (z-score),[11],-0.291
same,glycan array binding signal (z-score),Gal3S4S(b1-4)GlcNAc,0.084

# Reference: the supplement of paper PMC8728848
